{
  "source": "the supplement of paper PMC3334620",
  "note": "Over roughly 33,000 sequences, “E-score (-0.5 to 0.5)” has its median near -0.053; the highest 2% begin near 0.37. Some of the results follow.",
  "data": [
    {"target": "Hap1 (UniProt P0CE41)", "sequence (P0CE41 whole entry, the tested form may be a part)": "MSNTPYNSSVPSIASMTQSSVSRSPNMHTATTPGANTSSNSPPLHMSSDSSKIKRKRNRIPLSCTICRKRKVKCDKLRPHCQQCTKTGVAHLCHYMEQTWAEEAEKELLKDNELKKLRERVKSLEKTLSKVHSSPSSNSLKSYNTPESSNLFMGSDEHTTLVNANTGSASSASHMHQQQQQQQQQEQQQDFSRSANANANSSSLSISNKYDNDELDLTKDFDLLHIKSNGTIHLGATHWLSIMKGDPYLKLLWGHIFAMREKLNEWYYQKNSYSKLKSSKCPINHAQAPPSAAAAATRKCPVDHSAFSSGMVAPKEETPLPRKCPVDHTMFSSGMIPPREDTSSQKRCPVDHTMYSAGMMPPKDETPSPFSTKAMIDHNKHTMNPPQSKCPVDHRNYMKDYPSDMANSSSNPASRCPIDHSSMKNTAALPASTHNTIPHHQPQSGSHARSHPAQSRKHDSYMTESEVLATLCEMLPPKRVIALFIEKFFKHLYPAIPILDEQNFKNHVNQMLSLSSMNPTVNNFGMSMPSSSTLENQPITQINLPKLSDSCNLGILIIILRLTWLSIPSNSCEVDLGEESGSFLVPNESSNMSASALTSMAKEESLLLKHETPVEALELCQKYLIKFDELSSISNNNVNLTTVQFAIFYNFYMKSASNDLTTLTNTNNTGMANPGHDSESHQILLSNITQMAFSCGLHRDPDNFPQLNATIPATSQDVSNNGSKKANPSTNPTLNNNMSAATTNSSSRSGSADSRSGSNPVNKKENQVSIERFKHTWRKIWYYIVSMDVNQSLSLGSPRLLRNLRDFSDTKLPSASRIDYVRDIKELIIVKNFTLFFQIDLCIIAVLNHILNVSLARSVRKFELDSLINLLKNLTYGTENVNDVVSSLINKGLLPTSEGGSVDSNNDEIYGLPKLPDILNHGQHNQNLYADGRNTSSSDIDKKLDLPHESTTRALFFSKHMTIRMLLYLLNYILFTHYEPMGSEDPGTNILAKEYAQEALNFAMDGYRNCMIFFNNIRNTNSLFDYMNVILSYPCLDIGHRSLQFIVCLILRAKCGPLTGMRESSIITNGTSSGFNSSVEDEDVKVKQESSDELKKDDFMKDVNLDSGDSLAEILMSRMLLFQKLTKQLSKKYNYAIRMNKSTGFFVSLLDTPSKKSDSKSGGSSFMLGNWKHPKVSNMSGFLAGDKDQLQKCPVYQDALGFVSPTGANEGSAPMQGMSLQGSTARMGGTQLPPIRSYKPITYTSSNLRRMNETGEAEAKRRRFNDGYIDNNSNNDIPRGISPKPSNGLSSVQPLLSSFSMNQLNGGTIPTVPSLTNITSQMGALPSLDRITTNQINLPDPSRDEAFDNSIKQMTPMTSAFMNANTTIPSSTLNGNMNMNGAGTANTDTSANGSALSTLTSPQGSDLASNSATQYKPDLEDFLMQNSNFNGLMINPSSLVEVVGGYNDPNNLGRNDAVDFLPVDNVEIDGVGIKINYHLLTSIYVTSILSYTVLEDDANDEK", "assay": "PBM E-score (8-mer binding enrichment) (E-score (-0.5 to 0.5)); higher = stronger / more preferred TF binding; most listed sequences are background and not binding sites", "conditions": "protein concentration: 200 nM; construct: GST-DNA-binding domain", "protocol": "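Universal 'all 10-mer' protein binding microarrays (Agilent AMADID 015681) probed with GST-tagged S. cerevisiae TFs (full-length or DBD) made by in vitro transcription/translation (PURExpress), about 100-200 nM. Bound TF was detected with fluorescent anti-GST. Each ungapped 8-mer (which stands for itself and its reverse complement) is scored by the PBM enrichment score (E-score), a modified Wilcoxon-Mann-Whitney statistic from -0.5 to +0.5, computed with the Universal PBM Analysis Suite. Scale: above 0.35 generally sequence-specific binding.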", "values": [
      {"sequence": "ACGTCTTC", "PBM E-score": -0.154},
      {"sequence": "ACCTATGC", "PBM E-score": -0.0561},
      {"sequence": "CGCGTTAG", "PBM E-score": 0.0478},
      {"sequence": "AAGACCGC", "PBM E-score": 0.189},
      {"sequence": "ACCAACTA", "PBM E-score": -0.0754},
      {"sequence": "TCCGGAGA", "PBM E-score": 0.442},
      {"sequence": "CATCATCG", "PBM E-score": 0.0441},
      {"sequence": "CCACCTAG", "PBM E-score": -0.172},
      {"sequence": "TAGGCAGA", "PBM E-score": -0.0956},
      {"sequence": "GCTGGGCA", "PBM E-score": -0.195},
      {"sequence": "AGGTCCTC", "PBM E-score": -0.0595},
      {"sequence": "AGCGTGAA", "PBM E-score": -0.265},
      {"sequence": "GAGTGATC", "PBM E-score": -0.04},
      {"sequence": "ATTTACGA", "PBM E-score": 0.0048},
      {"sequence": "ATCTGACC", "PBM E-score": 0.14},
      {"sequence": "CACGGAAG", "PBM E-score": 0.159},
      {"sequence": "GAGCGCGA", "PBM E-score": 0.0945},
      {"sequence": "ATGACTTA", "PBM E-score": -0.224},
      {"sequence": "AACGTAGC", "PBM E-score": -0.215},
      {"sequence": "GCTGCTCC", "PBM E-score": -0.037},
      {"sequence": "TCCGCTAA", "PBM E-score": 0.336},
      {"sequence": "ACCCTTCT", "PBM E-score": -0.228},
      {"sequence": "CGCCGTCA", "PBM E-score": 0.163},
      {"sequence": "CGCTGTAC", "PBM E-score": -0.0988},
      {"sequence": "ACATGGGC", "PBM E-score": -0.0579},
      {"sequence": "TCGCTGCA", "PBM E-score": 0.0886},
      {"sequence": "CTGGATTA", "PBM E-score": 0.169},
      {"sequence": "TTACACAA", "PBM E-score": -0.15},
      {"sequence": "CTGTAGAC", "PBM E-score": -0.076},
      {"sequence": "ATACTCGA", "PBM E-score": -0.264},
      {"sequence": "CGCGCGCG", "PBM E-score": 0.287},
      {"sequence": "GCTTAGAA", "PBM E-score": -0.0878},
      {"sequence": "AATCCATC", "PBM E-score": -0.087},
      {"sequence": "CTGTAGCA", "PBM E-score": -0.103},
      {"sequence": "CAAAGTTA", "PBM E-score": -0.00975},
      {"sequence": "CTGGTTAC", "PBM E-score": -0.205},
      {"sequence": "ATCTTAAT", "PBM E-score": -0.106},
      {"sequence": "TCGGCCCA", "PBM E-score": 0.304},
      {"sequence": "ATTTGGGG", "PBM E-score": -0.0211},
      {"sequence": "CAAGCGAA", "PBM E-score": 0.053},
      {"sequence": "GGCTCGGA", "PBM E-score": 0.344},
      {"sequence": "GAGGCGAC", "PBM E-score": -0.164},
      {"sequence": "AGCAACTA", "PBM E-score": -0.0755},
      {"sequence": "CCTTAGTC", "PBM E-score": -0.167},
      {"sequence": "TCGTTACA", "PBM E-score": -0.285},
      {"sequence": "GGTAGGGA", "PBM E-score": 0.0501},
      {"sequence": "AAGGCCGG", "PBM E-score": 0.408},
      {"sequence": "CCCTTAAA", "PBM E-score": -0.115},
      {"sequence": "ATTTCCAG", "PBM E-score": 0.129},
      {"sequence": "CCCATATC", "PBM E-score": 0.0933},
      {"sequence": "GCTTCTAA", "PBM E-score": -0.178},
      {"sequence": "CGCAACAA", "PBM E-score": -0.187},
      {"sequence": "AAAACAAC", "PBM E-score": -0.305},
      {"sequence": "CAGGTTGA", "PBM E-score": -0.231},
      {"sequence": "CCTCCATC", "PBM E-score": -0.212},
      {"sequence": "CACATAGG", "PBM E-score": -0.15},
      {"sequence": "AAAATAAG", "PBM E-score": -0.195},
      {"sequence": "ATTGCTTC", "PBM E-score": 0.0444},
      {"sequence": "CGAACGCA", "PBM E-score": 0.13},
      {"sequence": "GCGCCTCA", "PBM E-score": 0.0896},
      {"sequence": "ATCGCGGC", "PBM E-score": 0.285},
      {"sequence": "CCATGCAG", "PBM E-score": -0.239},
      {"sequence": "AGGGCAAC", "PBM E-score": -0.0307},
      {"sequence": "ACATTTCT", "PBM E-score": 0.0135},
      {"sequence": "CACTCAAG", "PBM E-score": -0.375},
      {"sequence": "AACCGGCA", "PBM E-score": 0.158},
      {"sequence": "GGGCGGGA", "PBM E-score": 0.144},
      {"sequence": "AGCGTTTG", "PBM E-score": -0.183},
      {"sequence": "CGGAGTGC", "PBM E-score": 0.216},
      {"sequence": "ACAGGGGT", "PBM E-score": -0.338},
      {"sequence": "AGCAGCAA", "PBM E-score": -0.181},
      {"sequence": "GCAGGCAC", "PBM E-score": -0.11},
      {"sequence": "ACGACCGT", "PBM E-score": -0.0362},
      {"sequence": "CGAGTACA", "PBM E-score": 0.105},
      {"sequence": "AGGATCGC", "PBM E-score": -0.1},
      {"sequence": "CCGTCCAA", "PBM E-score": 0.133},
      {"sequence": "ACCAACAC", "PBM E-score": -0.207},
      {"sequence": "ACTACCCT", "PBM E-score": -0.126},
      {"sequence": "ACCCTTAA", "PBM E-score": 0.0529},
      {"sequence": "AGCTGCAC", "PBM E-score": -0.0426},
      {"sequence": "GACTCCAC", "PBM E-score": -0.13},
      {"sequence": "CTAAGAAA", "PBM E-score": -0.0774},
      {"sequence": "CCAACCAC", "PBM E-score": 0.0917},
      {"sequence": "AACTCACA", "PBM E-score": -0.198},
      {"sequence": "TCGGGCCA", "PBM E-score": 0.319},
      {"sequence": "ACTCTTTG", "PBM E-score": -0.264},
      {"sequence": "ACTTACAT", "PBM E-score": -0.192},
      {"sequence": "AGAAACAC", "PBM E-score": -0.0607},
      {"sequence": "CCCGCTAC", "PBM E-score": 0.17},
      {"sequence": "AAAAGGAT", "PBM E-score": -0.206},
      {"sequence": "GACGTCAC", "PBM E-score": -0.00738},
      {"sequence": "ACCATAAC", "PBM E-score": -0.0854},
      {"sequence": "CCTCTGTC", "PBM E-score": -0.191},
      {"sequence": "CACGTAAA", "PBM E-score": -0.226}
    ]}
  ]
}
